# Measured values: the supplement of paper PMC8728848
# Some of the results follow.
# B1: CML1 (Coprinopsis cinerea) (protein)
# chain: MAIFHTGSELFIITRGPGKLTLLTWGGLNNLRSVIGAIPTENTGVTKWAVSFSHNYTRFSFIWEGQGEACYQIGNGLTRSPVGRSWSSSSTIHWGSSTVITEDVTSVVPGAVNRDKVTTAYALPDNL
# Experiments:
# Assay in all cases: glycan array binding signal (z-score within array); higher = stronger binding
# Conditions in all cases: glycan notation: IUPAC condensed, linker removed
# [1] = target: Neu5Ac(a2-6)Gal(b1-4)GlcNAc(b1-6)[Gal(b1-3)GlcNAc(b1-3)]Gal(b1-4)Glc
# In short: (§1)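 Negative Z-scores can be read as non-binding. The Z-score is calculated within each array and then averaged across arrays of one protein sequence at different concentrations or buffers and across linkers. Arrays, 3228 in all, were curated from the Consortium for Functional Glycomics database and kept only where the protein sequence was available.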
# [2] = target: Neu5Ac(a2-6)Gal(b1-4)GlcNAc(b1-6)[Gal(b1-3)]GalNAc
# In short: as §1
# [3] = target: Neu5Ac(a2-6)Gal(b1-4)GlcNAc6S
# In short: as §1
# Neu5Ac(a2-6)GalNAc = target: Neu5Ac(a2-6)GalNAc
# In short: as §1
# [4] = target: Neu5Ac(a2-6)GalNAc(b1-4)GlcNAc
# In short: as §1
# [5] = target: Neu5Ac(a2-6)GalNAc(b1-4)GlcNAc6S
# In short: as §1
# [6] = target: Neu5Ac(a2-6)GlcNAc(b1-4)GlcNAc
# In short: as §1
# [7] = target: Neu5Ac(a2-6)GlcNAc(b1-4)GlcNAc(b1-4)GlcNAc
# In short: as §1
# Neu5Ac(a2-8)Neu5Ac = target: Neu5Ac(a2-8)Neu5Ac
# In short: as §1
# [8] = target: Neu5Ac(a2-8)Neu5Ac(a2-3)Gal(b1-3)GalNAc(b1-4)[Neu5Ac(a2-3)]Gal(b1-4)Glc
# In short: as §1
# [9] = target: Neu5Ac(a2-8)Neu5Ac(a2-3)Gal(b1-3)GalNAc(b1-4)[Neu5Ac(a2-8)Neu5Ac(a2-3)]Gal(b1-4)Glc
# In short: as §1
# [10] = target: Neu5Ac(a2-8)Neu5Ac(a2-3)Gal(b1-4)Glc
# In short: as §1
# [11] = target: Neu5Ac(a2-8)Neu5Ac(a2-3)Gal(b1-4)GlcNAc
# In short: as §1
# [12] = target: Neu5Ac(a2-8)Neu5Ac(a2-3)[Gal(b1-3)GalNAc(b1-4)]Gal(b1-4)Glc
# In short: as §1
# [13] = target: Neu5Ac(a2-8)Neu5Ac(a2-3)[GalNAc(b1-4)]Gal(b1-4)Glc
# In short: as §1
# [14] = target: Neu5Ac(a2-8)Neu5Ac(a2-8)Neu5Ac
# In short: as §1
# [15] = target: Neu5Ac(a2-8)Neu5Ac(a2-8)Neu5Ac(a2-3)Gal(b1-4)Glc
# In short: as §1
# [16] = target: Neu5Ac(a2-8)Neu5Ac(a2-8)Neu5Ac(a2-3)[Gal(b1-3)GalNAc(b1-4)]Gal(b1-4)Glc
# In short: as §1
# [17] = target: Neu5Ac(a2-8)Neu5Ac(a2-8)Neu5Ac(a2-3)[GalNAc(b1-4)]Gal(b1-4)Glc
# In short: as §1
# [18] = target: Neu5Ac(a2-8)Neu5Ac(a2-8)Neu5Ac(a2-8)Neu5Ac(a2-3)[GalNAc(b1-4)]Gal(b1-4)Glc
# In short: as §1
# [19] = target: Neu5Ac(a2-8)Neu5Gc(a2-3)Gal(b1-4)GlcNAc
# In short: as §1
# [20] = target: Neu5Ac(b2-6)Gal(b1-4)GlcNAc
# In short: as §1
# Neu5Ac(b2-6)GalNAc = target: Neu5Ac(b2-6)GalNAc
# In short: as §1
# [21] = target: Neu5Ac9Ac(a2-3)Gal(b1-3)GlcNAc
# In short: as §1
# [22] = target: Neu5Ac9Ac(a2-3)Gal(b1-4)GlcNAc
# In short: as §1
# [23] = target: Neu5Ac9Ac(a2-6)Gal(b1-4)GlcNAc
# In short: as §1
# [24] = target: Neu5Gc(a2-3)Gal(b1-3)GlcNAc
# In short: as §1
# [25] = target: Neu5Gc(a2-3)Gal(b1-3)[Fuc(a1-4)]GlcNAc
# In short: as §1
# Neu5Gc(a2-3)Gal(b1-4)Glc = target: Neu5Gc(a2-3)Gal(b1-4)Glc
# In short: as §1
# [26] = target: Neu5Gc(a2-3)Gal(b1-4)GlcNAc
# In short: as §1
# [27] = target: Neu5Gc(a2-3)Gal(b1-4)GlcNAc(b1-3)Gal(b1-4)GlcNAc(b1-2)Man(a1-3)[Neu5Gc(a2-3)Gal(b1-4)GlcNAc(b1-3)Gal(b1-4)GlcNAc(b1-2)Man(a1-6)]Man(b1-4)GlcNAc(b1-4)GlcNAc
# In short: as §1
# [28] = target: Neu5Gc(a2-3)Gal(b1-4)[Fuc(a1-3)]GlcNAc
# In short: as §1
# [29] = target: Neu5Gc(a2-6)Gal(b1-4)GlcNAc
# In short: as §1
# Neu5Gc(a2-6)GalNAc = target: Neu5Gc(a2-6)GalNAc
# In short: as §1
# [30] = target: Neu5Gc(a2-8)Neu5Ac(a2-3)Gal(b1-4)GlcNAc
# In short: as §1
# [31] = target: Neu5Gc(a2-8)Neu5Gc(a2-3)Gal(b1-4)GlcNAc
# In short: as §1
# [32] = target: Neu5Gc(a2-8)Neu5Gc(a2-3)Gal(b1-4)GlcNAc(b1-3)Gal(b1-4)GlcNAc
# In short: as §1
# [33] = target: Neu5Gc(a2-8)Neu5Gc(a2-6)Gal(b1-4)GlcNAc
# In short: as §1
# [34] = target: Neu5Gc(b2-6)Gal(b1-4)GlcNAc
# In short: as §1
binder,measurement,setting,value
B1,glycan array binding signal (z-score),[1],-0.355
same,glycan array binding signal (z-score),[2],-0.323
same,glycan array binding signal (z-score),[3],-0.334
same,glycan array binding signal (z-score),Neu5Ac(a2-6)GalNAc,-0.331
same,glycan array binding signal (z-score),[4],-0.351
same,glycan array binding signal (z-score),[5],-0.33
same,glycan array binding signal (z-score),[6],-0.33
same,glycan array binding signal (z-score),[7],-0.334
same,glycan array binding signal (z-score),Neu5Ac(a2-8)Neu5Ac,-0.351
same,glycan array binding signal (z-score),[8],-0.299
same,glycan array binding signal (z-score),[9],-0.357
same,glycan array binding signal (z-score),[10],-0.36
same,glycan array binding signal (z-score),[11],-0.348
same,glycan array binding signal (z-score),[12],-0.323
same,glycan array binding signal (z-score),[13],-0.317
same,glycan array binding signal (z-score),[14],-0.327
same,glycan array binding signal (z-score),[15],-0.312
same,glycan array binding signal (z-score),[16],-0.31
same,glycan array binding signal (z-score),[17],-0.328
same,glycan array binding signal (z-score),[18],-0.35
same,glycan array binding signal (z-score),[19],-0.354
same,glycan array binding signal (z-score),[20],-0.353
same,glycan array binding signal (z-score),Neu5Ac(b2-6)GalNAc,-0.357
same,glycan array binding signal (z-score),[21],-0.361
same,glycan array binding signal (z-score),[22],-0.348
same,glycan array binding signal (z-score),[23],-0.315
same,glycan array binding signal (z-score),[24],-0.353
same,glycan array binding signal (z-score),[25],3.04
same,glycan array binding signal (z-score),Neu5Gc(a2-3)Gal(b1-4)Glc,-0.348
same,glycan array binding signal (z-score),[26],-0.323
same,glycan array binding signal (z-score),[27],-0.336
same,glycan array binding signal (z-score),[28],1.47
same,glycan array binding signal (z-score),[29],-0.33
same,glycan array binding signal (z-score),Neu5Gc(a2-6)GalNAc,-0.348
same,glycan array binding signal (z-score),[30],-0.346
same,glycan array binding signal (z-score),[31],-0.334
same,glycan array binding signal (z-score),[32],-0.315
same,glycan array binding signal (z-score),[33],-0.341
same,glycan array binding signal (z-score),[34],-0.339
